Results on 57 compounds are retold here after PubChem BioAssay AID360 (National Center for Advancing Translational Sciences (NCATS), 2006).

Molecules are shown by their SMILES. Out of some 48,000 compounds screened, about 550 (1.1%) were called active. Not shown: some 4% with an inconclusive outcome. No stated cut-off is given here; in the data, active means potency below about 15 µM; inconclusive means mostly about 16 µM to 33 µM; inactive means weaker than that. The list shows a part of the results.
Potency means the concentration at half of the fitted maximal effect.

Sequence of UniProt P04062 (P04062 whole entry, looked up): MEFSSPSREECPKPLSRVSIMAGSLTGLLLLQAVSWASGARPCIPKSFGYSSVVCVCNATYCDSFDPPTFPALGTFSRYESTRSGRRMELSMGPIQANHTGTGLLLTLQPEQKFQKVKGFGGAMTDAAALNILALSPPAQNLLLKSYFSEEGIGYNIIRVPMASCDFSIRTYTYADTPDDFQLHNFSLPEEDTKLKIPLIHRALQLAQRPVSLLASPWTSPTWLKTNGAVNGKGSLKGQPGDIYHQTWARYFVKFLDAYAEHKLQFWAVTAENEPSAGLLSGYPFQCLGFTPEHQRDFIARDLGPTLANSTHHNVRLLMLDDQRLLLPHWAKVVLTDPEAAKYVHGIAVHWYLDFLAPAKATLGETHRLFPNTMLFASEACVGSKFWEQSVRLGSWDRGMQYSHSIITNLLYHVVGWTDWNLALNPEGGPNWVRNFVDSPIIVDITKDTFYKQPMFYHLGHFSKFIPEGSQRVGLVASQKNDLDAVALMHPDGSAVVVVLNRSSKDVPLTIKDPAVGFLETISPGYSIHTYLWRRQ

For this assay, the target named is Lysosomal acid glucosylceramidase (Homo sapiens) (UniProt P04062). Briefly: Glucocerebrosidase.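 Further: the screen sought inhibitors.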 Particulars: purified enzyme, resorufin glucoside fluorescence (screen aimed at inhibitors), 20 min. The essentials:
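Wild-type enzyme at 0.2 nM final in 50mM citric acid/KH2PO4, 10mM sodium taurocholate, 0.01% tween-20, pH 5.9, with resorufin beta-D-glucopyranoside at 30 uM final. Compounds titrated, 20 min at RT, red fluorescence read; AC50 from titration.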
Regarding `Cc1cc(C(=O)CSc2nnc(-c3ccncc3)n2-c2ccccc2)c(C)n1C`, the Potency was inactive: > 76.9 µM.
As for `CC(C)c1ccc(NC(=O)C2C3C=CC4(CN(CCCN5CCOCC5)C(=O)C24)O3)cc1` (configuration not stated), the Potency is inactive: > 76.9 µM.
On to `CCOc1ccc(-c2nc(-c3ccncc3)no2)cc1OCC`, for which the Potency is inactive: > 76.9 µM.
On to `CCOC(=O)C1CCN(C(=O)c2ccccc2Oc2ccccc2)CC1`, for which the Potency is inactive: > 76.9 µM.
To `CSc1ncccc1C(=O)OCc1ccccc1` belongs inactive: > 76.9 µM.
Regarding `CCC(=O)Nc1cccc(NC(=O)COc2ccc(OC)cc2)c1`, the Potency is inactive: > 76.9 µM.
Turning to `Cn1c(Cc2csc(N)n2)nnc1SCC(=O)NCc1ccccc1`, the Potency is inactive: > 76.9 µM.
As to `COc1cccc(N2C(=O)CC(N3CCC(C(N)=O)(N4CCCCC4)CC3)C2=O)c1` (configuration not stated), the Potency is inactive: > 76.9 µM.
In the case of `COc1ccc(C(=O)Cn2nnc(-c3ccccc3F)n2)cc1` it was inactive: > 76.9 µM.
In the case of `CCOC(=O)C(CC)n1cnc2c(nnn2-c2ccc(OC)cc2)c1=O` (configuration not stated) it was inactive: > 76.9 µM.
To `CCOC(=O)c1c(NC(=O)c2nn(CC)cc2Br)c(C#N)cn1-c1ccccc1` belongs inactive: > 76.9 µM.
Turning to `N#CCCN(C(=O)Nc1ccccc1)c1ccccc1`, the Potency was inactive: > 76.9 µM.
Turning to `CCCOc1cccc(OCCSc2nc(C)cc(=O)[nH]2)c1`, the Potency is inactive: > 76.9 µM.
In the case of `COc1cc2c(cc1OC)-c1cc(NC3CCCCCC3)nc(=O)n1CC2` it was inactive: > 76.9 µM; in that of `CC(C)C[C@H](NC(=O)OC(C)(C)C)C(=O)N1CCC(C(=O)N[C@@H](Cc2ccccc2)C(=O)O)CC1`, inactive: > 76.9 µM.
In the case of `COC(=O)c1cc(NC(=O)CC2C(=O)NCCN2C(=O)c2ccccc2)cc(C(=O)OC)c1` (configuration not stated), the Potency is inactive: > 76.9 µM.
With `COc1ccc(Cl)cc1NC(=O)CSc1nnc(-c2ccncc2)n1CC1CCCO1` (configuration not stated), the Potency was inactive: > 76.9 µM.
To `COc1ccc(C(=O)Nc2cccc3c2C(=O)NC3=O)cc1S(=O)(=O)N1CCOCC1` belongs inactive: > 76.9 µM; to `Cc1csc(NC(=O)CSc2nnc(-c3ccc(S(=O)(=O)N4CCCC4)cc3)o2)n1`, inactive: > 76.9 µM; to `NC(=O)Cn1c(=O)oc2ccccc21`, inactive: > 76.9 µM.
To `COc1cccc(/C=N/n2c(-c3ccco3)nc3ccccc3c2=O)c1` belongs inactive: > 76.9 µM; to `C=CCNC(=O)C1CC(=O)N(c2ccc(OCC(=O)Nc3ccc(OC)cc3)cc2)C1` (configuration not stated), inactive: > 76.9 µM; to `CN(C(=O)c1cccc(C#N)c1)c1nnc(-c2ccccn2)s1`, inactive: > 76.9 µM.
For the compound `COc1ccccc1OCc1csc(NC(=O)c2ccco2)n1`, the Potency is inactive: > 76.9 µM.
In the case of `CCN1c2ccccc2-c2nc3ccccc3n2C1c1cccnc1` (configuration not stated) it was inactive: > 76.9 µM; in that of `O=C(NCN1C(=O)C2C3C=CC(C3)C2C1=O)OC1CCCCC1` (configuration not stated), inactive: > 76.9 µM; in that of `COc1ccc(N2CCN(C(CNC(=O)C3CCCCC3)c3cccnc3)CC2)cc1` (configuration not stated), inactive: > 76.9 µM.
In the case of `O=C(C1Cc2ccccc2CN1S(=O)(=O)c1ccc(F)cc1)N1CCCCC1` (configuration not stated) it was inactive: > 76.9 µM.
In the case of `O=c1c2cnn(-c3ccc(F)cc3)c2ncn1Cc1ccccn1` it was inactive: > 76.9 µM.
For the compound `COc1ccc(N2CCN(c3nc4ccccc4n3CC(=O)c3ccccc3)CC2)cc1`, the Potency is inactive: > 76.9 µM.
To `COC(=O)c1ccc(C)c(NC(=O)c2c(-c3ccccc3)noc2C)c1` belongs inactive: > 76.9 µM.
In the case of `COC(=O)c1c(C(=O)NCc2ccccc2)ncn1CC(O)COc1ccccc1` (configuration not stated) it was inactive: > 76.9 µM.
To `CCn1c(SCC(=O)C(C)(C)C)nnc1-c1ccccc1OC` belongs inactive: > 76.9 µM; to `O=C(CCCc1nc(-c2ccccc2Cl)no1)NCc1cccnc1`, inactive: > 76.9 µM; to `CC(C)(C)C(=O)NC1CCN(C(=O)N2CCCC2)CC1`, inactive: > 76.9 µM.
Consider `COC(=O)c1ccccc1NC(=O)CN1C(=O)c2ccccc2S1(=O)=O`, for which the Potency is inactive: > 76.9 µM.
With `Cc1ccnc(N2CCC(C(=O)Nc3nnc(C)s3)CC2)n1`, the Potency was active: 11.7 µM.
To `CCCCC(=O)c1c(O)c2ccccc2oc1=O` belongs inactive: > 76.9 µM.
In the case of `COCCn1nnnc1CN1CCC(NC(=O)c2ccc(Br)cc2)CC1` it was inactive: > 76.9 µM; in that of `COc1ccccc1-c1nc(C(F)(F)F)c(OC)o1`, inactive: > 76.9 µM.
In the case of `Cc1noc(C)c1COC(=O)c1cccc(S(=O)(=O)N2CCCCCC2)c1`, the Potency is inactive: > 76.9 µM.
In the case of `Cc1ccc2c(c1)c(C)c(C)n2CC(O)CN1CCOCC1` (configuration not stated) it was inactive: > 76.9 µM; in that of `CCn1c(SCC(=O)Nc2cc(C)on2)nc2c(c1=O)SC(C)C2` (configuration not stated), inactive: > 76.9 µM; in that of `Cc1ccc(N2CC(C(=O)OCc3ccccc3F)CC2=O)cc1` (configuration not stated), inactive: > 76.9 µM.
In the case of `Cc1ccc(C(C(=O)NC2CCCCC2)N(C(=O)c2csnn2)C2CC2)o1` (configuration not stated) it was inactive: > 76.9 µM.
In the case of `CCN(CC)S(=O)(=O)c1ccc(Cl)c(C(=O)Oc2cccnc2)c1` it was inactive: > 76.9 µM; in that of `CC(O)c1nc2ccc(Cc3ccc4nc(C(C)O)[nH]c4c3)cc2[nH]1` (configuration not stated), inactive: > 76.9 µM.
For `COc1ccc(CCN(C(=O)c2ccccc2)C2=CC3CCC(C2)N3C)cc1OC` (configuration not stated), the Potency was inactive: > 76.9 µM.
Turning to `Cc1ccc2cc(CN(CCN3CCCC3)C(=O)Nc3ccccc3)c(=O)[nH]c2c1C`, the Potency was inactive: > 76.9 µM.
Regarding `COc1ccccc1Nc1nc(N)nc(CN2CCN(c3ccccc3)CC2)n1`, the Potency was active: 6.8 µM.
Regarding `CCc1nc2sc3ccccc3c(=O)c2c(=O)n1Cc1ccco1`, the Potency is inactive: > 76.9 µM.
In the case of `C=CCNC(=O)c1ccccc1NC(=O)Nc1ccccc1` it was inactive: > 76.9 µM; in that of `CCCc1[nH]nc2c1C(c1ccc(OC(=O)N3CCOCC3)cc1)C(C#N)=C(N)O2` (configuration not stated), inactive: > 76.9 µM; in that of `O=C(NCc1ccccn1)c1cc(-n2cnnc2)ccc1Cl`, inactive: > 76.9 µM.
In the case of `CCOC(=O)C1CCN(C(=O)c2c(-c3c(Cl)cccc3Cl)noc2C)CC1` it was inactive: > 76.9 µM; in that of `CCCc1cc(Nc2cccc(OC)c2)n2ncnc2n1`, inactive: > 76.9 µM.
In the case of `COc1cccc(CN(C)CC(=O)NC(=O)NCc2ccco2)c1`, the Potency is inactive: > 76.9 µM.
